We go through 167 variants from the RNAGym collection of RNA variant scans (doi:10.1093/nar/gkz1192).

B1: CPEB3 Ribozyme (parent)
chain: UAACAGGGGGCCACAGCAGAAGCGUUCACGUCGCAGCCCCUGUCAGAUUCUGGUGAAUCUGCGAAUUCUGCUGUAUAUCUC

Read counts are not given, so values of variants with three or more changes are uncertain.

In the data set the parent is B1. The data set is described as follows: self-cleavage, relative activity (ratio to wild type); higher = more cleavage; in vitro, sequencing. The procedure, abridged:
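Relative activity was defined as the cleaved/total read fraction for a variant divided by the same fraction for the unmutated ribozyme. CPEB3 self-cleaving ribozyme libraries were made by rounds of error-prone PCR, barcoded, and transcribed in vitro with T7 RNA polymerase for 5 hours at 37°C, and cleavage ran through transcription plus a 15 min DNase I step before EDTA. Illumina sequencing of template-switched reverse transcripts gave the reads, and DNA sequencing mapped the barcodes. Averages come from three batches, using variants with at least 5 reads.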
Take U49C U60C U69C U80C: the self-cleavage is 0.1.
As for U49C U67A U69C A77U U78C U80C, the self-cleavage was 0.13.
Regarding U49A U72A A77C, the self-cleavage stood at 0.31.
The value for U49A U72A A77U was 0.21.
The value for U48C U51A A57G U72C was 0.82; that for U48C A75C U78A was 0.93.
The value for U49C G52A U58C U69A was 0.19.
With A45U U66C U72C, the self-cleavage came out at 0.18.
In the case of U49A U58C C62U, the self-cleavage was 0.18.
The value for U49C U58C U60C U80C was 0.35; that for U49A U51G U60G was 0.14.
As for U49A A65G U69A, the self-cleavage worked out at 0.31.
The value for A47U A56U A65G was 0.06; that for U48C A56G U74A was 0.2.
Take A47G U60A U74C: the self-cleavage worked out at 1.
For the variant A47G G55A A57U U72C, the self-cleavage was 0.19.
The value for A47G A56G G70C was 0.18.
For the variant A47U A56G G63A A64U U76C U78A, the self-cleavage is 0.09.
The value for A47U U49C A57U was 0.57; that for A47G U60A A65U was 0.14; that for A47G A57U U60C was 0.18.
The value for A47G C50G C62U U69C was 0.12; that for A47U G61A U69A U72C was 0.41; that for U48A U51C G63U was 0.24.
As to A47U U51A A57G, the self-cleavage turned out to be 0.35.
The value for U48A A77G U78A was 0.75.
The value for U49A A56G U60C U69C U80A was 0.13.
The value for A47U A56C C79A was 0.29.
With A47C U60A G61U, the self-cleavage was 0.1.
The value for U49C A65G U67C U80C was 0.11; that for U48C U66C U69C G73A U76C was 0.19.
The value for A47C U66C U78A U80A was 0.18; that for A47G U69C U80C was 0.52; that for A47G G52A U72A was 0.95.
The value for A47G A56G A64G U78C was 0.48; that for U49C U51A U69C was 0.25; that for A47G A57U U60C U78C was 0.16.
In the case of U48C C50U U69C, the self-cleavage was found to be 0.16.
With U48C U66C U78A, the self-cleavage came out at 0.29.
The value for U48A U51A A75G was 0.36; that for U49C A56U U72C U76A was 0.16.
Regarding U49C U58C U69G U78C, the self-cleavage stood at 0.04.
Consider U48C A65G A77C, for which the self-cleavage was 0.1.
U48G U72C U74A: the self-cleavage is 0.33.
As to U49C A64C A65G U76C, the self-cleavage is 0.14.
For A47G A64U A75U, the self-cleavage worked out at 0.13.
The value for U49C U58C C62U C71U was 0.06; that for U48C G53U C62U was 0.13.
Turning to A45U U54A C79U, the self-cleavage is 0.78.
The value for U49C A56G U58A A64U U69C U80C was 0.07; that for A47G A57G U60A was 0.19; that for U49C U51A U54G G63U U67C was 0.07.
The value for A47G U51C A57G U76C was 0.27.
For A47G U60C U66C U72A, the self-cleavage was 0.15.
On to A47G U51C G52U A65U A75G, for which the self-cleavage was found to be 0.13.
The value for U48A C62U A65U was 0.07.
The value for U48C A64G U67A was 0.36; that for A47G U58C U66C was 0.63; that for U48C U54C U69A U78C was 0.09.
The value for U48C U60A U72G A75U was 0.14; that for A45U U58C A64G U72G was 0.12; that for A47U U54G U80C was 0.37.
With A47U U74C A75C U76A, the self-cleavage is 1.22.
As to A47G A56U C62A A75G, the self-cleavage turned out to be 0.15.
A47U U51A A56G A64G: the self-cleavage worked out at 0.15.
The value for U49C U51A U60A was 0.19; that for A47C A65G U67C was 0.15.
The value for U49A U54C U60C U78A was 0.21; that for A47C A57G A75U was 0.43; that for U49C C59U U80A was 0.23.
The value for A47G U66C U72A was 0.34.
Turning to G46A U54C A57G, the self-cleavage came out at 0.11.
Consider A47G U58C C68U U72A, for which the self-cleavage was determined as 0.49.
Take U48C U72A U78C: the self-cleavage was 0.48.
The value for U48C U72A U78A was 0.33.
The value for U48C A57U U69C U74A was 0.21; that for U48C U51C A57U A65G G73U was 0.26.
Turning to U49C A64U U66A, the self-cleavage was 0.23.
As for A45U U67A U80C, the self-cleavage turned out to be 0.22.
On to U48C U69C U72C, for which the self-cleavage was 0.34.
As to U48A U58C U69C, the self-cleavage turned out to be 0.08.
The value for A47G U49C U60A U69C U72C was 0.13; that for A47U U49C U60G C81U was 0.05.
The value for U48C U54A U72A was 0.45; that for A47U U51C U69C was 0.22.
The value for A45U U69A A77U U78A was 0.39; that for A47G A57G A64G U78A was 0.34.
In the case of U49C U66C U80A, the self-cleavage is 0.08.
The value for U49C U51C U54G U60C was 0.12; that for A47C U51A A75G was 0.33.
The value for U49C A65G U78C C81A was 0.1; that for G46A U54C A65G C71A was 0.06.
The value for U48C C59U G63U A65U was 0.11; that for G46A U54C C59U C68A was 0.28.
For the variant A47G U60C A75G U76A, the self-cleavage came out at 0.12.
The value for A47G A65G U80A was 0.48; that for A45U U78C C79A was 0.77.
In the case of U48C U54A U67G, the self-cleavage was determined as 0.68.
The value for A47G U48C U49C U60A C79U was 0.13.
As to U49C U54A A57U G61C, the self-cleavage stood at 0.15.
The value for U49C A64G U72A A77G was 0.09.
The value for U49C U54C U78C was 0.41.
In the case of U49A U51C U67C U78A, the self-cleavage is 0.5.
U49C U51C A64G: the self-cleavage came out at 0.2.
As for G46C U49C U60A A77U, the self-cleavage was determined as 0.1.
The value for U48C U60C U66C was 0.17.
The value for A47G A64G U66C U76G was 0.09.
A47G A56G U80A: the self-cleavage was 1.17.
Turning to U48C A65G U66C U67A, the self-cleavage came to 0.2.
The value for U48C G70A U72C was 0.19; that for U48C A64G A65U U67C was 0.23.
The value for A47G U51C U80A was 1.15.
The value for U48A A56U U78C was 0.39; that for A47U A65G U74C A75G was 0.35; that for A47G U49C G73A was 0.56.
Regarding G46C A47G U51A, the self-cleavage was 0.15.
U48C G53A U67C: the self-cleavage stood at 0.47.
U48G U49A G63A: the self-cleavage worked out at 0.2.
As to U48C U51C C71G C81G, the self-cleavage came out at 0.07.
The value for U48C U58C G73A U78C was 0.34; that for U49A A56G A64U was 0.2.
Take U49C A64G U66C U72C A77G: the self-cleavage amounted to 0.1.
For the variant A47C U49C U54G, the self-cleavage was 0.15.
Consider A47G U51A C71A U80G, for which the self-cleavage turned out to be 0.47.
The value for U48C U54A A56U U60C was 0.23; that for U48C U60G U69C was 0.18; that for A45U U60C A77U was 0.62.
For U49C U60A U67C, the self-cleavage stood at 0.08.
For the variant A47U U49A U80C, the self-cleavage amounted to 0.31.
The value for U49A U67C U72C U76C was 0.4.
The value for G46U A47U A56G G73U was 0.18; that for A47C U51C U66A U78C C79A was 0.15; that for U49C A56G U60A U76A was 0.49.
On to A47G U58C A65U, for which the self-cleavage came out at 0.21.
As for U49C A77G U78C, the self-cleavage was 0.42.
In the case of A47G U54C A64G, the self-cleavage amounted to 0.19.
The value for U48A U51C U67C U80A was 0.14; that for A47G U60A U80C was 0.61.
The value for U49C U54C A65G U74C U78C was 0.23; that for A47U A56G U69A U72C was 0.22.
The value for G46U A56G A64G was 0.17; that for U48C U58C U80C was 0.14.
Consider U49C G55C U80C, for which the self-cleavage was 0.37.
The value for U48A C50A G63A U72C was 0.27; that for A47G U54A U80C was 1.2.
Consider U48C A64U U72C, for which the self-cleavage amounted to 0.14.
On to U48C A64U U72A, for which the self-cleavage was found to be 0.24.
Take G46A A56G G61A: the self-cleavage came to 0.09.
The value for A47G U58C A77G was 1.16.
The value for U48C U69C U78A was 0.47; that for U48C A57U U80C was 0.85.
In the case of G46A U69A U72A, the self-cleavage was found to be 0.07.
For U49A A56U U67C, the self-cleavage is 0.14.
Take U49A A56U A57G: the self-cleavage was 0.98.
The value for U49C G55U U60C A75G was 0.15; that for U48C U51A A64G was 0.18.
The value for A47U C59U U60A A64G U72C was 0.1.
The value for U49C G53C U72A was 0.24; that for A47G U49A U54A was 0.53; that for G46U U51C A77G was 0.11.
Turning to A47G A65G U69C, the self-cleavage is 0.13.
The value for U49C A56U U69A was 0.21; that for G46U A56G C62U A65U was 0.06; that for U49C U54C U66A A77G U78C was 0.11.
Turning to U49A A56G U67C, the self-cleavage is 0.21.
The value for A47G U48A U72C was 0.56; that for A47G C59G U67G was 0.13.
